Here are results for three molecules from patent publication US20250333542A1 (Hoffmann-La Roche, published 2025).

Test [1] has as its target T1, Fc (kih)-IFNGR1 monomer (P1AF7104) (UniProt P15260 18-245).
T1 construct: Used as the soluble analyte in SPR; not shown: Fc (kih) part
T1 sequence (P15260 whole entry, species assumed, looked up): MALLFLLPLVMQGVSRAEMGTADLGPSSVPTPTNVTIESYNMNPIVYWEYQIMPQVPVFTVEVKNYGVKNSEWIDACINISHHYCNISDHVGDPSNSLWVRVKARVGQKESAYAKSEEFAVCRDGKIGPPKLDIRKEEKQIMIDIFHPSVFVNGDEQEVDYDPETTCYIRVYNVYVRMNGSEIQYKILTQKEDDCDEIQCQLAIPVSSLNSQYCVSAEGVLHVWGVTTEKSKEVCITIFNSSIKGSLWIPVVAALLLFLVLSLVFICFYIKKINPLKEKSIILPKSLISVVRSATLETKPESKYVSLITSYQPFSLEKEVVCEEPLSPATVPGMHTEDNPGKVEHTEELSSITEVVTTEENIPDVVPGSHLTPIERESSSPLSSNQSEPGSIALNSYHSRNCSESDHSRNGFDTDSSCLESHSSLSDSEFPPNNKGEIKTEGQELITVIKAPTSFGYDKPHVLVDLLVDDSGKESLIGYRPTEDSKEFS
The test can be described thus: SPR, compound immobilised, Fc(kih)-IFNGR1 monomer as analyte; apparent affinity. The method, then: (§1) The binding behaviour of IFNG variants towards IFNGR1 and IFNGR1/2 was assessed by surface plasmon resonance (SPR). SPR experiments were performed on a Biacore 8K device at 25° C. with HBS-EP as running buffer (0.01 M HEPES pH 7.4, 0.15 M NaCl, 3 mM EDTA, 0.005% Surfactant P20, Biacore, Freiburg/Germany). […] IFNG mutation series compounds were immobilised at a concentration of 25 nM, 80 s contact time and 10 μL/min. Immobilisation levels up to 450 resonance units (RU) were used. Subsequently, decreasing concentrations (800-3.13 nM) of Fc (kih)-IFNGR1 monomer or Fc (kih)-IFNGR1/2 heterodimer were injected as a second analyte with a flow rate of 30 μL/min over 120 seconds and dissociation was monitored for 500 s. Bulk refractive index differences were corrected for by subtracting the response obtained in a reference flow cell, where no protein was immobilised. The affinity constants were derived from the rate constants by fitting to a 1:1 Langmuir binding.
(§2) To measure binding affinities, compounds of the mutation series were immobilised in the flow cell. As a second analyte Fc (kih)-IFNGR1 monomer or Fc (kih)-IFNGR1/R2 heterodimer were passed through the flow cell and binding affinities (KD) were calculated based on observed association and dissociation constants. Already single point mutations reduced the apparent binding affinities towards the receptors compared to the compound with C-terminal KRKRP.

Test [2] has as its target T2, Fc (kih)-IFNGR1/2 heterodimer (P1AF8126) (UniProt P15260 18-245; P38484 28-247, limits assumed).
T2 construct: Used as the soluble analyte in SPR; also called Fc (kih)-IFNGR1/R2 heterodimer; IFNGR1/R2; not shown: Fc (kih) chain
T2 sequence (looked up) 1: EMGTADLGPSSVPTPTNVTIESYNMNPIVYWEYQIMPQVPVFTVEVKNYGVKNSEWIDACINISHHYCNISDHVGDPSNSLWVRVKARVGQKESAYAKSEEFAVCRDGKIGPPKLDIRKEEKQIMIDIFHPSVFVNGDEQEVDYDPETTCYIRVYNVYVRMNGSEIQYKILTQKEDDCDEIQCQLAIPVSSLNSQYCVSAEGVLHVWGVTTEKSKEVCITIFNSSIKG
T2 sequence (looked up) 2: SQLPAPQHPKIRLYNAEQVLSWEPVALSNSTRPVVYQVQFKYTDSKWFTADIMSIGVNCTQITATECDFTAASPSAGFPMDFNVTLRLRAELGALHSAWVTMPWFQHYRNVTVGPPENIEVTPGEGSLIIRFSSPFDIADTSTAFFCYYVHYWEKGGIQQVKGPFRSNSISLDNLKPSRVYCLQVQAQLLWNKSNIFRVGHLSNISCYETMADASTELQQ
Nature of the test: SPR, compound immobilised, Fc(kih)-IFNGR1/2 heterodimer as analyte; apparent affinity. Here is the method:
as §1, §2

B1: P1AF9478 (anti-FAP 4B9 IgG-IFNG, P in position 4 of KRKR) (other)
heavy: EVQLLESGGGLVQPGGSLRLSCAASGFTFSSYAMSWVRQAPGKGLEWVSAIIGSGASTYYADSVKGRFTISRDNSKNTLYLQMNSLRAEDTAVYYCAKGWFGGFNYWGQGTLVTVSSASTKGPSVFPLAPSSKSTSGGTAALGCLVKDYFPEPVTVSWNSGALTSGVHTFPAVLQSSGLYSLSSVVTVPSSSLGTQTYICNVNHKPSNTKVDKKV[human IgG1 Fc with changes skipped]GGGGSGGGGSGGGGSQDPYVKEAENLKKYFNAGHSDVADNGTLFLGILKNWKEESDRKIMQSQIVSFYFKLFKNFKDDQSIQKSVETIKEDMNVKFFNSNKKKRDDFEKLTNYSVTDLNVQRKAIHELIQVMAELSPAAKTGKRKPP
light: EIVLTQSPGTLSLSPGERATLSCRASQSVTSSYLAWYQQKPGQAPRLLINVGSRRATGIPDRFSGSGSGTDFTLTISRLEPEDFAVYYCQQGIMLPPTFGQGTKVEIKRTVAAPSVFIFPPSDEQLKSGTASVVCLLNNFYPREAKVQWKVDNALQSGNSQESVTEQDSKDSTYSLSSTLTLSKADYEKHKVYACEVTHQGLSSPVTKSFNRGEC
notes: Antibody-cytokine fusion, IgG1 P329G LALA, (G4S)3 linker; also called KRKPP
On to B1, for which the results for the Kd in test [1] and in test [2] were 564 nM and 284 nM, respectively.

B2: P1AF9479 (anti-FAP 4B9 IgG-IFNG, C-terminus AKTGPPKRP) (other)
heavy: EVQLLESGGGLVQPGGSLRLSCAASGFTFSSYAMSWVRQAPGKGLEWVSAIIGSGASTYYADSVKGRFTISRDNSKNTLYLQMNSLRAEDTAVYYCAKGWFGGFNYWGQGTLVTVSSASTKGPSVFPLAPSSKSTSGGTAALGCLVKDYFPEPVTVSWNSGALTSGVHTFPAVLQSSGLYSLSSVVTVPSSSLGTQTYICNVNHKPSNTKVDKKV[human IgG1 Fc with changes skipped]GGGGSGGGGSGGGGSQDPYVKEAENLKKYFNAGHSDVADNGTLFLGILKNWKEESDRKIMQSQIVSFYFKLFKNFKDDQSIQKSVETIKEDMNVKFFNSNKKKRDDFEKLTNYSVTDLNVQRKAIHELIQVMAELSPAAKTGPPKRP
light: EIVLTQSPGTLSLSPGERATLSCRASQSVTSSYLAWYQQKPGQAPRLLINVGSRRATGIPDRFSGSGSGTDFTLTISRLEPEDFAVYYCQQGIMLPPTFGQGTKVEIKRTVAAPSVFIFPPSDEQLKSGTASVVCLLNNFYPREAKVQWKVDNALQSGNSQESVTEQDSKDSTYSLSSTLTLSKADYEKHKVYACEVTHQGLSSPVTKSFNRGEC
notes: Antibody-cytokine fusion, IgG1 P329G LALA, (G4S)3 linker; P in positions 1 and 2 of KRKR
Turning to B2, the Kd in test [1] was found to be 3600 nM; in test [2], 204 nM.

B3: P1AF9480 (anti-FAP 4B9 IgG-IFNG, C-terminus AKTGKRPPP) (other)
heavy: EVQLLESGGGLVQPGGSLRLSCAASGFTFSSYAMSWVRQAPGKGLEWVSAIIGSGASTYYADSVKGRFTISRDNSKNTLYLQMNSLRAEDTAVYYCAKGWFGGFNYWGQGTLVTVSSASTKGPSVFPLAPSSKSTSGGTAALGCLVKDYFPEPVTVSWNSGALTSGVHTFPAVLQSSGLYSLSSVVTVPSSSLGTQTYICNVNHKPSNTKVDKKV[human IgG1 Fc with changes skipped]GGGGSGGGGSGGGGSQDPYVKEAENLKKYFNAGHSDVADNGTLFLGILKNWKEESDRKIMQSQIVSFYFKLFKNFKDDQSIQKSVETIKEDMNVKFFNSNKKKRDDFEKLTNYSVTDLNVQRKAIHELIQVMAELSPAAKTGKRPPP
light: EIVLTQSPGTLSLSPGERATLSCRASQSVTSSYLAWYQQKPGQAPRLLINVGSRRATGIPDRFSGSGSGTDFTLTISRLEPEDFAVYYCQQGIMLPPTFGQGTKVEIKRTVAAPSVFIFPPSDEQLKSGTASVVCLLNNFYPREAKVQWKVDNALQSGNSQESVTEQDSKDSTYSLSSTLTLSKADYEKHKVYACEVTHQGLSSPVTKSFNRGEC
notes: Antibody-cytokine fusion, IgG1 P329G LALA, (G4S)3 linker; P in positions 3 and 4 of KRKR
For the molecule B3, the Kd in test [1] came to 1420 nM; in test [2] it was 683 nM.
